Assay results taken from PubChem BioAssay AID588855 (National Center for Advancing Translational Sciences (NCATS), 2011).
Out of some 410,000 compounds screened, about 5,000 (1.2%) were called active. This list was built around the results that the source calls inconclusive (neither active nor inactive); the mix of calls is not that of the screen. Calls follow the shape of the dose curve; as a rule, active = well fitted inhibition curve with a large enough effect; inconclusive = small, poorly fitted or top-dose-only effect; inactive = no such curve, though single readings can be large or run the other way. Potencies beside an inconclusive call are fits to weak or partial responses and may not hold up.

Assay: qHTS for Inhibitors of TGF-b; also: nearly all actives have a fitted effect of over 65% in size
Details: HepG2 CAGA-GFP TGF-b/SMAD3 reporter, GFP fluorescence, 18 h, TGF-beta stimulated, 500 pg/mL final; series mostly up to 46.1 µM; activity, negative = inhibition: at the top concentration
How it was run: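 HEPG2 CAGA-GFP cells (1000/well, DMEM with 1% FBS) were pre-incubated 2 h at 37 degrees C, given compound by pin tool, then stimulated with TGF-beta at 500 pg/mL final for 18 h before per-cell GFP fluorescence imaging.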
% is scaled to controls: 0 for no effect and ±100 for the full control effect; potency is read from the fitted curve at half-maximal effect; tags tell the direction and shape of the fitted curve.

Row | Structure (SMILES) | Potency | activity, negative = inhibition
1 | Cc1ccc(C)c(N2CCN(CCCNC(=O)C3COc4ccccc4C3)CC2)c1 (stereo not drawn) | inconclusive: 35.5 µM [inhibitor, partial curve, poor fit] | 
2 | Cc1occc(=O)c1OC(=O)Nc1ccc(Cl)c(Cl)c1 | active: 10 µM | 
3 | O=C(NCCCN1CCOCC1)c1cc2nc(-c3ccco3)cc(C(F)(F)F)n2n1 |  | inactive: -4.4%
4 | O=C(Nc1ccccc1F)c1cc(S(=O)(=O)N2CCOCC2)ccc1N1CCOCC1 | inconclusive: 15.8 µM [inhibitor, single point] | 
5 | Cc1ccccc1OCC(=O)OCC(=O)NC1CCCC1 |  | inactive: -1.21%
6 | CCOc1cccc2sc(N(Cc3cccnc3)C(=O)C3CCCCC3)nc12 | inconclusive: 35.5 µM [inhibitor, single point] | 
7 | Cc1cc(OC(C)C(=O)N(Cc2ccco2)Cc2ccccc2F)cc(C)c1Cl (stereo not drawn) | inconclusive: 12.6 µM [inhibitor, partial curve, poor fit] | 
8 | CCCCCCCCOC(=O)c1cc([N+](=O)[O-])c(Sc2ncnc3nc[nH]c23)c([N+](=O)[O-])c1 | active: 7.08 µM | 
9 | Cc1sc2ncnc(N3CCC(C(=O)Nc4cc(S(C)(=O)=O)ccc4Cl)CC3)c2c1C |  | inactive: -7.85%
10 | CCOC(=O)N1CCC(n2c(SCC(=O)NCc3ccco3)nc3ccsc3c2=O)CC1 | inconclusive: 15.8 µM [inhibitor, single point] | 
11 | CC(C)NC(=O)N(C)C[C@H]1OCCCC[C@H](C)Oc2ccc(NS(=O)(=O)c3ccccc3)cc2C(=O)N([C@H](C)CO)C[C@H]1C |  | inactive: 24.3%
12 | CCN1CCc2nc3sc(C(=O)Nc4cccnc4Cl)c(N)c3cc2C1 |  | inactive: 2.59%
13 | Cn1cccc1/C=C1\SC(=S)N(Nc2ccccc2)C1=O | inconclusive: 7.94 µM [inhibitor, partial curve, poor fit] | 
14 | O=C(O)c1ccccc1C(=O)c1ccc(Sc2ccc(Cl)cc2)c([N+](=O)[O-])c1 | inconclusive: 22.4 µM [inhibitor, single point] | 
15 | CC(=O)Nc1ccc(NC(=O)c2ccccc2CCc2ccccc2)cc1 | inconclusive: 1.78 µM [inhibitor, partial curve, poor fit] | 
16 | CC1CCC(N2CCN(c3ncccn3)CC2)CC1 (stereo not drawn) | inconclusive: 14.1 µM [inhibitor, partial curve, poor fit] | 
17 | CCOC(=O)c1c(NC(=O)c2cccs2)sc2c1CC(C)(C)OC2 |  | inactive: -21.9%
18 | CN(C)S(=O)(=O)n1cc(/C=C(\NC(=O)c2ccccc2)C(=O)NCCN2CCOCC2)c2ccccc21 |  | inactive: -16%
19 | COCCC(=O)N1CCC(Oc2ccc(C(=O)NCc3ncc(C)[nH]3)cc2)CC1 |  | inactive: 1.89%
20 | O=C1OC[C@@H]2CCCN2C(=O)[C@@H](CC(=O)N(CCO)Cc2ccccc2)C/C=C\CC[C@H]1Cc1ccc(F)cc1 | inconclusive: 35.5 µM [inhibitor, single point] | 
21 | Cc1c(C)n(CCN(C)C)c2ncnc(NCc3ccccc3)c12 |  | inactive: 9.89%
22 | COc1ccc(C(=O)C2CCCN(Cc3cccn3-c3ccccn3)C2)c(OC)c1 (stereo not drawn) | inconclusive: 35.5 µM [inhibitor, single point] | 

Row | Structure (SMILES) | Potency | activity, negative = inhibition
23 | Cc1ccc(S(=O)(=O)NCCC(=O)Nc2ccc(Cl)c(Cl)c2)cc1C | inconclusive: 25.1 µM [inhibitor, single point] | 
24 | COc1ccc(CCn2nnnc2C(C(C)C)N2CCN(c3ncccn3)CC2)cc1OC (stereo not drawn) | inconclusive: 35.5 µM [inhibitor, single point] | 
25 | COc1ccc(C(=O)/C=C/c2ccccc2C(F)(F)F)cc1 | inconclusive: 17.8 µM [inhibitor, single point] | 
26 | CCCCOC(=O)C1=C(C)NC(=O)NC1c1cc2c(cc1Br)OCO2 (stereo not drawn) | inconclusive: 35.5 µM [inhibitor, single point] | 
27 | COc1cccc(/C=N/NC(=O)CCc2c(C)n[nH]c2C)c1O | inconclusive: 35.5 µM [inhibitor, single point] | 
28 | Cc1ccc2ncnc(Oc3ncccc3NC(=O)C(C)(C)C)c2c1 |  | inactive: -5.85%
29 | CCCNC(=O)c1onc(CSc2ccc(Cl)cc2)c1C(=O)NCCC(C)C | inconclusive: 11.2 µM [inhibitor, partial curve] | 
30 | O=[N+]([O-])c1cccc(NC(=S)N2CCc3ccccc3C2)c1 | inconclusive: 12.6 µM [inhibitor, single point] | 
31 | Cn1cc(/C=N/NC(N)=S)c2ccccc21 | inconclusive: 12.6 µM [inhibitor, single point] | 
32 | CC(C)(C)CN1CCNC[C@H]1Cc1cccc2ccccc12 |  | inactive: -27.7%
33 | COc1ccc(NC(=O)C2CCCN(CCCc3ccccc3)C2)cc1OCC(C)C (stereo not drawn) | inconclusive: 35.5 µM [inhibitor, single point] | 
34 | CCc1ccc(OCC(=O)N(Cc2cccs2)c2ccc(Cl)cc2)cc1 | active: 15.8 µM | 
35 | CC(=O)NCCNc1nc(NCC2CC2)nc2cc(-c3ccccc3)sc12 | inconclusive: 8.91 µM [inhibitor, single point] | 
36 | COc1ccc(CCNC(=O)C2CCN(S(=O)(=O)c3ccc(SC)cc3)CC2)cc1 | inconclusive: 6.31 µM [inhibitor, full curve, poor fit] | 
37 | COc1ccc(Cl)cc1NS(=O)(=O)c1cccc(C(=O)NC2CCN(Cc3ccccc3)CC2)c1 | inconclusive: 12.6 µM [inhibitor, partial curve, poor fit] | 
38 | CCOC(=O)N1CCN(S(=O)(=O)N2CCCC(C(=O)NCc3cc(OC)ccc3OC)C2)CC1 (stereo not drawn) | inactive | 
39 | Cc1ccc2oc(-c3ccco3)nc2c1 | inconclusive: 11.2 µM [inhibitor, partial curve] | 
40 | O=C(C=Cc1ccccc1)NCCNC(=O)C=Cc1ccccc1 | inconclusive: 35.5 µM [inhibitor, single point] | 
41 | Clc1cccc(Cn2ncc3ccccc32)c1 | inconclusive: 5.62 µM [inhibitor, single point] | 
42 | Fc1ccc(/C=N/NC(=S)NCCc2ccccc2)cc1F | inconclusive: 35.5 µM [inhibitor, single point] | 
43 | CCOCCCNC(=O)C1CCCN(Cc2nc(-c3ccc(CC)cc3)oc2C)C1 (stereo not drawn) | inconclusive: 7.94 µM [inhibitor, partial curve, poor fit] | 
